Reference: the supplement of paper PMC4604168 (melanoma cell lines)
The other results are listed elsewhere or left out. Most values come without repeats; read them as rough.

Assays:
Test in all cases: cell count relative to DMSO control; melanoma cells; higher = more viable cells
Settings in all cases: library dose: standard library concentration; 72 h; first compound 2 µM
G361 = system: G361
IPC-298 = system: IPC-298
IST-MEL1 = system: IST-MEL1
LB2518-MEL = system: LB2518-MEL
LOXIMVI = system: LOXIMVI
MEL-HO = system: MEL-HO
MZ2-MEL = system: MZ2-MEL
MeWo = system: MeWo
RPMI7951 = system: RPMI7951
RVH-421 = system: RVH-421
SkMel28 = system: SkMel28
SkMel2 = system: SkMel2
SkMel30 = system: SkMel30
SkMel5 = system: SkMel5
UACC257 = system: UACC257
UACC62 = system: UACC62
WM115 = system: WM115
WM1716 = system: WM1716
WM1745 = system: WM1745
WM3526 = system: WM3526
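Also: cells treated in 1,536-well plates, then fixed and DAPI-stained, with nuclei counted from automated high-throughput microscope images.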

Row | Structure (SMILES) | cell count (G361) | cell count (IPC-298) | cell count (IST-MEL1) | cell count (LB2518-MEL) | cell count (LOXIMVI) | cell count (MEL-HO) | cell count (MZ2-MEL) | cell count (MeWo) | cell count (RPMI7951) | cell count (RVH-421) | cell count (SkMel28) | cell count (SkMel2) | cell count (SkMel30) | cell count (SkMel5) | cell count (UACC257) | cell count (UACC62) | cell count (WM115) | cell count (WM1716) | cell count (WM1745) | cell count (WM3526)
1 | Cn1sc(=O)n(Cc2ccccc2)c1=O + CCCS(=O)(=O)Nc1ccc(F)c(C(=O)c2c[nH]c3ncc(Cl)cc23)c1F [PLX4720] (partner dose 0.4 µM) | 67% | 74.8% | 104% | 111% | 142% | 93.2% | 73.3% | 102% | 112% | 76.3% | 51% | 110% | 90.3% | 72.8% | 118% | 83.2% | 88.3% | 63% | 104% | 68.9%
2 | CCCCCCCCCCCCCCCCCCOP(=O)([O-])OC1CC[N+](C)(C)CC1 [Perifosine] + O=C(CCCCCCC(=O)Nc1ccccc1)NO [vorinostat] (partner dose 0.4 µM) | 75.8% | 99.4% | 79.8% | 94.7% | 53.8% | 100% | 114% | 81.1% | 32.6% | 76.8% | 35.6% | 68.6% | 82.4% | 78% | 76.5% | 66.3% | 107% | 90.2% | 87.8% | 76.2%
3 | CCCCCCCCCCCCCCCCCCOP(=O)([O-])OC1CC[N+](C)(C)CC1 [Perifosine] + CS(=O)(=O)CCNCc1ccc(-c2ccc3ncnc(Nc4ccc(OCc5cccc(F)c5)c(Cl)c4)c3c2)o1 [lapatinib] (partner dose 4 µM) | 80.9% | 79.9% | 91.3% | 128% | 77.1% | 87.1% | 75.2% | 88.4% | 63.2% | 92% | 79.1% | 104% | 93.2% | 76.3% | 114% | 56.6% | 85.6% | 82.2% | 96.2% | 99.4%
4 | Cn1sc(=O)n(Cc2ccccc2)c1=O + Nc1ncn([C@H]2C[C@H](O)[C@@H](CO)O2)c(=O)n1 [decitabine] (partner dose 0.5 µM) | 84.1% | 53.6% | 70.6% | 72.7% | 77% | 82.9% | 68.8% | 78.1% | 86.6% | 95.8% | 130% | 103% | 93.2% | 76% | 105% | 89.2% | 76.7% | 65.4% | 103% | 85.1%
5 | CCCCCCCCCCCCCCCCCCOP(=O)([O-])OC1CC[N+](C)(C)CC1 [Perifosine] + OCCn1cc(-c2cnc3nnn(Cc4ccc5ncccc5c4)c3n2)cn1 [PF04217903] (partner dose 5 µM) | 71.6% | 21.8% | 80.1% | 36.3% | 39.6% | 55.8% | 36.2% | 81.1% | 8.07% | 92.9% | 16.8% | 49.4% | 80.6% | 98.7% | 84.5% | 56.9% | 79.6% | 68.7% | 19.4% | 74.5%
6 | C[C@@H](N)c1ccc(C(=O)Nc2ccnc3[nH]ccc23)cc1 + Cc1cc(N2CCOCC2)cc2[nH]c(-c3c(NC[C@@H](O)c4cccc(Cl)c4)cc[nH]c3=O)nc12 [BMS536924] (partner dose 1 µM) | 54.3% | 97.2% | 81.3% | 108% | 60.8% | 76% | 57.4% | 54.5% | 33.3% | 61.1% | 84.3% | 71.9% | 85% | 53.3% | 62.9% | 92.6% | 85.5% | 47.7% | 22.5% | 67%
7 | C[C@@H](N)c1ccc(C(=O)Nc2ccnc3[nH]ccc23)cc1 + CN(C)S(=O)(=O)c1ccc2c(c1)/C(=C/c1cc3c([nH]1)CCCC3)C(=O)N2 [SU6656] (partner dose 2 µM) | 61.2% | 69.5% | 69.2% | 57.1% | 84% | 71.5% | 48.1% | 38.9% | 26.7% | 56.2% | 49.4% | 59.3% | 85.4% | 54.4% | 66.5% | 67.5% | 34.6% | 24.8% | 32.8% | 64.1%
8 | Cn1sc(=O)n(Cc2ccccc2)c1=O + Cc1cc(N2CCOCC2)cc2[nH]c(-c3c(NC[C@@H](O)c4cccc(Cl)c4)cc[nH]c3=O)nc12 [BMS536924] (partner dose 1 µM) | 75.5% | 82.7% | 90.9% | 79.4% | 82.9% | 104% | 109% | 72% | 96.2% | 107% | 88.4% | 87.8% | 80.9% | 66.5% | 106% | 75.4% | 68% | 95.4% | 47.6% | 72.2%
9 | CCCCCCCCCCCCCCCCCCOP(=O)([O-])OC1CC[N+](C)(C)CC1 [Perifosine] + CC(C)(C)c1cnc(CSc2cnc(NC(=O)C3CCNCC3)s2)o1 [SNS-032] (partner dose 0.05 µM) | 77.1% | 94.1% | 80.7% | 65.3% | 63.3% | 91.9% | 87% | 88.4% | 10.3% | 83.8% | 40.9% | 53.2% | 80.9% | 78.2% | 96.4% | 64.2% | 58.2% | 44.9% | 60.7% | 92.1%
